Assay results taken from PubChem BioAssay AID504339 (National Center for Advancing Translational Sciences (NCATS), 2011).
In all, about 390,000 compounds went through this assay and about 17,000 (4.4%) were called active. Inconclusive means that the source gave no clear call. Such entries were picked first, then a sample of the others. Calls come from the whole dose curve; as a rule, active = well fitted inhibition curve with a large enough effect; inconclusive = small, poorly fitted or top-dose-only effect; inactive = no such curve, though single readings can be large or run the other way. Potencies beside an inconclusive call are fits to weak or partial responses and may not hold up.

What follows are compounds tested against Lysine-specific demethylase 4A (Homo sapiens) (UniProt O75164) (assay: qHTS Assay for Inhibitors of JMJD2A-Tudor Domain). Details: AlphaScreen JMJD2A-Tudor / H3K4me3 peptide binding; activity change, negative = inhibition: at 114 µM (top of the series).
% is set by controls: 0 for no effect and ±100 for the full control effect; potency is the fitted concentration of half-maximal effect; tags give direction and shape of the fitted curve.
Note: nearly all actives have a fitted effect of over 50% in size.

Sequence of UniProt O75164 (O75164 whole entry, looked up, the tested form may be a part): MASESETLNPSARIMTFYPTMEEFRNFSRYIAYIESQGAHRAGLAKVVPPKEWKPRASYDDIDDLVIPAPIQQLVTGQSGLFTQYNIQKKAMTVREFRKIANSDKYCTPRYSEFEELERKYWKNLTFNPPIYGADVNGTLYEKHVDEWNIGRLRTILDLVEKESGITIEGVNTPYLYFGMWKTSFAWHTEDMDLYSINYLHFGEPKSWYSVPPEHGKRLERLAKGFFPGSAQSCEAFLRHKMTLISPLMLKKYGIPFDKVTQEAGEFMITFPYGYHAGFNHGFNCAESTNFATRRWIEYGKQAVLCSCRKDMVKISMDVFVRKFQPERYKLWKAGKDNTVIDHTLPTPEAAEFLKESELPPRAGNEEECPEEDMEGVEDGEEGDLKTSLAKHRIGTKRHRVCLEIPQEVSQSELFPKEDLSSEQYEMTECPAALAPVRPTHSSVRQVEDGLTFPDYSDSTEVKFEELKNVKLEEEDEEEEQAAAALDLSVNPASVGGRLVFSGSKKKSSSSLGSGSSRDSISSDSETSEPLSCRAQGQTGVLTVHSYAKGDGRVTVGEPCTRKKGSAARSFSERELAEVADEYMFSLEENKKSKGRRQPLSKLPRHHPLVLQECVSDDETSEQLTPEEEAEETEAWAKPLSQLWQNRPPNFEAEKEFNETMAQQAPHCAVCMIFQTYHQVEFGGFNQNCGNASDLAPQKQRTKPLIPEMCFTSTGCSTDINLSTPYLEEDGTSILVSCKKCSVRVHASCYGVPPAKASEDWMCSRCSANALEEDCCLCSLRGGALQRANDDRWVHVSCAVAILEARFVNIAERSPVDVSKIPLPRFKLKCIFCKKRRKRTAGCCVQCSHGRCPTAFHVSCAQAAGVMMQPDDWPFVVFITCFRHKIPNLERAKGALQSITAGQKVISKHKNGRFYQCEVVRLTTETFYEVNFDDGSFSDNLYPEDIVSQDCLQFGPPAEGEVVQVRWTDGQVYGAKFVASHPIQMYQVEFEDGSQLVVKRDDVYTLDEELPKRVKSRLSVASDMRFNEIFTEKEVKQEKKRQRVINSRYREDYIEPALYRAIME

SMILES	activity change, negative = inhibition	Potency
Cc1ccc(C(=O)Nc2nc(-c3ccco3)c(-c3ccco3)s2)o1	inconclusive: -73.1% [inhibitor]	–
Cc1nc2nc(NC(=O)C(C)C)[nH]n2c(=O)c1Cc1ccccc1	inactive: -29.6%	–
CCCC(CCC(=O)Nc1cc([N+](=O)[O-])ccc1O)C(=O)O (configuration not stated)	inactive: -6.34%	–
COc1ccc(-c2ccc(C#N)c(SCC(=O)Nc3sc4c(c3C#N)CCC4)n2)cc1	–	inconclusive: 89.1 µM [inhibitor, single point]
Cc1cnc(CN2CCc3c([nH]c4ccccc34)C2CC(C)C)[nH]1 (configuration not stated)	–	inconclusive: 50.1 µM [inhibitor, partial curve]
CCN1CCN(c2ccc(S(=O)(=O)N3CCOCC3)cc2NC(=O)C(C)Oc2ccc(F)cc2)CC1 (configuration not stated)	inactive: -14.4%	–
C=CCn1c(O)c(N=Nc2ccccc2O)c2ccccc21	–	inconclusive: 25.1 µM [inhibitor, partial curve]
N#Cc1ccc(C(c2nnnn2Cc2ccccc2)N2CCCC2)cc1 (configuration not stated)	–	inconclusive: 79.4 µM [inhibitor, partial curve]
CC(=O)N1CCN(c2ccc(NC(=S)NC(=O)c3ccc(C)c([N+](=O)[O-])c3)cc2)CC1	–	inconclusive: 56.2 µM [inhibitor, partial curve, poor fit]
CO/N=C/c1ccc(Oc2ccc([N+](=O)[O-])cc2[N+](=O)[O-])c(OC)c1	–	inconclusive: 35.5 µM [inhibitor, single point]
COc1ccccc1N1CCN(/N=C\c2sccc2C)CC1	–	inconclusive: 25.1 µM [inhibitor, full curve]
Cc1ccccc1C(=O)NC(=O)Nc1ccc(-n2nc(C(F)(F)F)cc2C(F)(F)F)cc1	inactive: -10.4%	–
Cc1ccc2c(c1)c1c(c(=O)n(-c3ccccc3C)c(=O)n1Cc1cccc(F)c1)n2C	inactive: -12.8%	–
Cc1cccc(NC(=S)N(Cc2ccc(Br)cc2)Cc2ccc(C(=O)O)cc2)c1	inactive: -32.2%	–
N#CC(C#N)=Cc1ccc(-c2ccc(S(=O)(=O)N=C(N)N)cc2)o1	–	inconclusive: 31.6 µM [inhibitor, single point]
Cc1ccc(N=Nc2c(N)n[nH]c2N)cc1	–	inconclusive: 63.1 µM [inhibitor, partial curve]
COc1cc(OC)c2c(-c3cccc(-c4ccc(O)cc4)c3)cc(=O)oc2c1	–	inconclusive: 50.1 µM [inhibitor, partial curve]
Cc1cc2c(sc3c(C)ccc(C)c32)c(C)n1	–	inconclusive: 39.8 µM [inhibitor, partial curve]
COCCN(C(=O)CSc1nc(-c2ccccc2)cn1N)c1c(N)n(Cc2ccccc2)c(=O)[nH]c1=O	inactive: -24.1%	–

SMILES	activity change, negative = inhibition	Potency
CCOc1ccc(/C=C(\C#N)C(=O)Nc2sc3c(c2C(=O)OC)CCC3)cc1OC	inactive: -8.82%	–
Nc1nc(CN2CCCCCC2)nc(Nc2ccccc2)n1	–	active: 20 µM
O=C(N/N=C/c1ccc(-c2ccccc2[N+](=O)[O-])o1)[C@H]1C[C@@H]1c1ccccc1	–	inconclusive: 28.2 µM [inhibitor, full curve]
Cc1ccc(/C=C2\SC(=S)N(/N=C/c3cc([N+](=O)[O-])ccc3O)C2=O)o1	–	active: 56.2 µM
Cc1cc(C)n(-c2nnc(C)n2N)n1	–	inconclusive: 79.4 µM [inhibitor, partial curve]
CCOC(=O)c1ccc(N2C(=O)c3n[nH]c(-c4cccs4)c3C2c2cccc(O)c2)cc1 (configuration not stated)	inactive: -35.7%	–
Nc1ncnc2c1cnn2-c1ccccc1	inactive: -4.71%	–
COc1ccc(CNC(=O)c2cc(-c3ccc(OC)c(OC)c3)nc3n[nH]c(-c4ccc(C)cc4)c23)cc1	inactive: -18.3%	–
C[C@H](NC(=O)c1nc[nH]c1C(=O)N[C@@H](C)C(=O)OC(C)(C)C)C(=O)OCc1ccccc1	–	inconclusive: 31.6 µM [inhibitor, full curve, poor fit]
CCN(CC)CCN(C(=O)c1ccc(C(=O)c2ccccc2)cc1)c1nc2c(OC)cccc2s1	–	inconclusive: 28.2 µM [inhibitor, partial curve]
c1ccc(-c2csc(=Nc3cccnc3)n2CC2CCCO2)cc1 (configuration not stated)	–	inconclusive: 56.2 µM [inhibitor, partial curve]
S=C(NC1CC1)NC1CCCc2ccccc21 (configuration not stated)	–	inconclusive: 100 µM [inhibitor, partial curve, poor fit]
COc1ccc2[nH]c(C)c(CCNC(=S)Nc3ccc(F)cc3)c2c1	–	inconclusive: 63.1 µM [inhibitor, partial curve, poor fit]
CCCC(=O)NC(=S)NNC(=O)c1ccc([N+](=O)[O-])cc1	–	active: 70.8 µM
CCOc1ccccc1N1CC(C(=O)N2CCc3ccccc32)CC1=O (configuration not stated)	inactive: 1.27%	–
Cc1c(NC(=S)NC(NC(=O)CC(C)C)C(Cl)(Cl)Cl)c(=O)n(-c2ccccc2)n1C (configuration not stated)	–	inconclusive: 89.1 µM [inhibitor, single point]
O=C(Nc1cccc(Cl)c1)c1ccc2ncsc2c1	inactive: 0%	–
CN(c1ccccc1)c1ccc(/C=C(\C#N)c2nnc3n2CCCCC3)cc1[N+](=O)[O-]	–	active: 44.7 µM
